# Experimental data reported in PubChem BioAssay AID1671188 (National Center for Advancing Translational Sciences (NCATS), 2021).
# “And” between values parts separate entries of the source, which are not always exact repeats. Equal values may be shown once. The campaign covered roughly 100,000 compounds. About 250 (0.25%) were called active. Inconclusive means that the source gave no clear call. Such entries were picked first, then a sample of the others. The call rests on the fitted dose curve; in most records, active means well fitted inhibition curve with a large enough effect; inconclusive means small, poorly fitted or top-dose-only effect; inactive means flat fitted curve, though single readings scatter. Potencies beside an inconclusive call are fits to weak or partial responses and may not hold up.
# Target: Alanine aminotransferase 2 (Homo sapiens) (UniProt Q8TD30)
# Sequence of UniProt Q8TD30 (Q8TD30 whole entry, looked up): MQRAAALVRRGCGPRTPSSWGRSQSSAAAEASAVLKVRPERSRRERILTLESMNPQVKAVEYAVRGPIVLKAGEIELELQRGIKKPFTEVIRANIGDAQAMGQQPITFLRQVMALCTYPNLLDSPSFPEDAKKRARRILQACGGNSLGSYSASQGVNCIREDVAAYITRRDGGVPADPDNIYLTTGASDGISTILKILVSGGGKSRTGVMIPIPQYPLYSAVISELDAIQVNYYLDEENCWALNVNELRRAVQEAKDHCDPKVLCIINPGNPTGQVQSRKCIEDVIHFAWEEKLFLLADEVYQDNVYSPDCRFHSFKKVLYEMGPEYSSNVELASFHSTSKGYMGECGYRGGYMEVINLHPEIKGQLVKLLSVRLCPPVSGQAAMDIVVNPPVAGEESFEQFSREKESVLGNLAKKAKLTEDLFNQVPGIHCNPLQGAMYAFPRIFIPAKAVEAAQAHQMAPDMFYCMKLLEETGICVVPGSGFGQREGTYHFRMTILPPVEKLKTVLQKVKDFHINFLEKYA
# Assay: Primary qHTS assay for inhibitors of Glutamate pyruvate transaminase 2 (GPT2); further: nearly all actives have a fitted effect of over 60% in size
# Conditions: Recombinant GPT2, coupled pyruvate oxidase/HRP Amplex Red fluorescence; series mostly up to 57.7 µM
# Outline: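 Recombinant GPT2 (10ng/uL) with 250uM a-KG and 2mM L-alanine, 30 min at room temperature, in HEPES pH 7.5 buffer. Pyruvate detected by pyruvate oxidase/HRP/Amplex Red fluorescence after 30 min in the dark; AOA (50uM) as positive control.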
# Potency means the concentration at half of the fitted maximal effect; tags describe the fitted curve by direction and shape.
row,Structure (SMILES),Potency
1,COc1ccc(C(=O)NC2CCN(c3cc(-c4ccccc4)[nH]n3)C2)cc1OC (stereo unspecified),"inconclusive: 11.2 µM [inhibitor, partial curve, poor fit]"
2,COc1ccc(C[C@H](NC(=O)[C@@]2(O)C[C@@H](O)[C@H](O)[C@@H](NC(=O)Nc3ccc(C(C)=O)cc3)C2)C(N)=O)cc1,"inconclusive: 0.708 µM [inhibitor, full curve, poor fit]"
3,CC(C)NC(=O)N1CCN(C(=O)C2CCNCC2)[C@@H](C(=O)N[C@H](Cc2c[nH]c3ccccc23)C(N)=O)C1,"inconclusive: 8.91 µM [inhibitor, full curve, poor fit]"
4,COc1ccc(OCc2cc(C(=O)N3C[C@H]4CC[C@H]3C4)n[nH]2)c(Cl)c1,inactive
5,Cc1noc(C)c1CCCNC(=O)c1ccc(N2CCC[C@H]2CO)nc1,inactive
6,CCN1C(=O)C2(CCN(S(=O)(=O)Cc3ccccc3Cl)CC2)c2ccccc21,inactive
7,CC(=O)O[C@@]1(C)C[C@@H](O)[C@]2(O)C=CO[C@@H](O[C@@H]3O[C@H](CO)[C@@H](O)[C@H](O)[C@H]3O)[C@@H]21,"inconclusive: 3.98 µM [inhibitor, single point]"
8,C[C@@H]1O[C@@H](O[C@H]2[C@H](OC(=O)[C@]34CCC(C)(C)C[C@H]3C3=CCC5[C@@]6(C)C[C@H](O)[C@H](O[C@@H]7O[C@H](CO)[C@@H](O)[C@H](O)[C@H]7O)[C@@](C)(CO)C6[C@H](O)C[C@@]5(C)[C@]3(C)CC4)OC[C@H](O)[C@@H]2O)[C@H](O)[C@H](O)[C@H]1O[C@@H]1OC[C@@H](O)[C@H](O[C@@H]2OC[C@](O)(CO)[C@H]2O)[C@H]1O (stereo partly specified),"inconclusive: 1.26 µM [inhibitor, single point]"
9,Cn1c2c(c3ccccc31)CN(C(=O)Nc1ccc(Cl)cc1Cl)CC2,inactive
10,CCCCn1c(=O)c(C(=O)NCC2CC2)nc2cccnc21,"inconclusive: 11.2 µM [inhibitor, single point]"
11,O=C(Nc1cccc(C(F)(F)F)c1)c1cnc2c(c1)N(C(=O)Cc1cccc(C(F)(F)F)c1)CCC2,"inconclusive: 1.26 µM [inhibitor, full curve, poor fit]"
12,CC(C)Cn1c(CN(C)CCC2CCCCO2)cnc1S(=O)(=O)Cc1ccccc1 (stereo unspecified),"inconclusive: 6.31 µM [inhibitor, single point]"
13,COc1cccc(CC(=O)N2CCCCCC2c2nnc(-c3ccccc3)o2)c1 (stereo unspecified),inactive
14,CC(C)CN1CC[C@H]2COC(=O)N2c2cc(F)ccc2C1,"inconclusive: 10 µM [inhibitor, single point]"
15,O=C1C(Cl)=C(N2CCOCC2)C(=O)N1c1ccc(Cl)c(Cl)c1,"inconclusive: 15.8 µM [inhibitor, single point]"
16,Cc1cccc(-c2cccc(CCOc3cnc4c(ccn4CC(=O)O)c3)c2)c1,"inconclusive: 10 µM [inhibitor, single point]"
17,Cc1noc(-c2cn(C3CCN(C(=O)C4(c5ccccc5)CC4)CC3)nn2)n1,inactive
18,COc1ccc(CC(=O)N2CCCN(c3cc(-c4ccc(OC)cc4)[nH]n3)CC2)cc1,"inconclusive: 7.08 µM [inhibitor, single point]"
19,O=C(NCC(F)(F)F)c1ccc2nnc(-c3cncc(Cl)c3)n2c1,"inconclusive: 39.8 µM [inhibitor, single point]"
20,COc1ccc(C)cc1-c1nccc2c(=O)cc(-c3cnn(C)c3)oc12,"inconclusive: 56.2 µM [inhibitor, single point]"
21,O=C(c1ccc2c(c1)OCO2)N1CCC2(CC1)NC(=O)N(c1ccccc1)N2,"inconclusive: 22.4 µM [inhibitor, partial curve]"

row,Structure (SMILES),Potency
1,CCOC(=O)c1sc(NC(=O)Cn2nc3c(cc2=O)CCCC3)nc1C,inactive
2,O=C1NC2(CCN(C(=O)c3ccc4c(c3)OCO4)CC2)Oc2ccccc21,"inconclusive: 28.2 µM [inhibitor, single point]"
3,NC(=O)[C@@H](Cc1ccccc1)NC(=O)[C@@H]1[C@@H](NC(=O)Nc2ccc(F)cc2F)CCN1C(=O)c1cnccn1,"inconclusive: 39.8 µM [inhibitor, single point]"
4,Cc1noc([C@@H]2CN(Cc3ccccc3C#N)C[C@H]2C(N)=O)n1,inactive
5,COC[C@@H]1CN(Cc2cc(OC)cc(OC)c2)C[C@H]1C(=O)N(C)C,inactive
6,CCCOC(=O)c1ccc(O)cc1,"inconclusive: 14.1 µM [inhibitor, single point]"
7,O=C(C1CC1)N1CCC(Oc2cccnc2)C1 (stereo unspecified),"inconclusive: 5.01 µM [inhibitor, single point]"
8,NC(=O)C1CCN(C(=O)C[C@@H]2CCNC[C@@H]2Cc2cc(COc3ccccc3)on2)CC1,inactive
9,N#Cc1cccc(-c2c(C(=O)NC3CCCCCC3)nc3sccn23)c1,inactive
10,O=C(NCCc1c[nH]c2ccccc12)c1cnc2c(c1)N([S+](=O)([O-])c1cccnc1)CCC2,"inconclusive: 39.8 µM [inhibitor, single point]"
11,Cc1cccc(CNC(=O)c2cc3c(N(C)Cc4ccccc4)nc(C)cn3n2)c1,"inconclusive: 7.08 µM [inhibitor, single point]"
12,O=C(NCC1CCCO1)c1ccc2c(c1)CC(=O)N2Cc1ccccc1 (stereo unspecified),"inconclusive: 5.62 µM [inhibitor, full curve]"
13,O=C1NC2(CCCN([S+](=O)([O-])c3cccc(C(F)(F)F)c3)C2)COc2ccccc21 (stereo unspecified),"inconclusive: 6.31 µM [inhibitor, single point]"
14,Cc1cc2cc(-c3c(C)noc3C)nc(-c3ccc(CO)cc3)c2o1,"inconclusive: 31.6 µM [inhibitor, partial curve]"
15,Cc1ccc(CN2C(=O)[C@@H]3C[C@@H](O)CN3C3(CN(CCC(C)C)C3)C2=O)o1,inactive
16,N[C@@H](Cc1cnc[nH]1)C(=O)N1CCC2(CC1)Nc1ccccc1NC2=O,"inconclusive: 22.4 µM [inhibitor, single point]"
17,COCCNC(=O)[C@H]1C[C@H](Oc2ccccc2)CN1C(=O)Nc1ccccc1,"inconclusive: 39.8 µM [inhibitor, single point]"
18,OC(c1cccc(C(F)(F)F)c1)c1nc(Nc2ccc(N3CCOCC3)cc2)n[nH]1 (stereo unspecified),"inconclusive: 10 µM [inhibitor, full curve, poor fit]"
19,CC(C)N1CCC(N2CCCC(N3CCN(c4cccc(C(F)(F)F)c4)CC3)C2)CC1 (stereo unspecified),inactive
20,Cn1nccc1C(=O)N1CCCN(S(=O)(=O)c2ccccc2)CCC(=O)NCC1,"inconclusive: 1.26 µM [inhibitor, full curve, poor fit]"
21,COCC1CCN(C(=O)C2CCCN(C(=O)c3ccccc3)CCC(=O)NCC2)CC1 (stereo unspecified),"inconclusive: 6.31 µM [inhibitor, single point]"

row,Structure (SMILES),Potency
1,Cc1c(-c2ccc(F)cc2)[nH]c2ccc(CNC(=O)c3ccc(CO)o3)cc12,"inconclusive: 2.82 µM [inhibitor, partial curve, poor fit]"
2,Cn1cc(-c2cnc3ccc4ccc(CS(=O)(=O)NCc5ccccn5)cc4c(=O)c3c2)cn1,"inconclusive: 28.2 µM [inhibitor, partial curve, poor fit]"
3,Cn1ncc2c(C(=O)NCC3CC3)cc(-c3cccnc3)nc21,inactive
4,O=C(c1ccc2nc(-c3ccc(F)cc3)cn2c1)N1C[C@@H]2CCCN[C@@H]2C1,inactive
5,O=C(CCNc1c(-c2cccc(F)c2)nc2cnccn12)NCc1ccc(Cl)cc1,"inconclusive: 20 µM [inhibitor, partial curve, poor fit]"
6,O=C(NC1CCCCC1)c1ccc2nnc(-c3cccc(C(F)(F)F)c3)n2c1,"inconclusive: 35.5 µM [inhibitor, single point]"
7,NC[C@H](O)c1ccc(O)c(O)c1,"inconclusive: 39.8 µM [inhibitor, single point] and active: 15.3 µM and active: 10 µM"
8,O=C(NC1CCC(O)CC1)c1ccc(-c2ncc3cnc(-c4ccccc4)cn23)cc1 (stereo unspecified),"inconclusive: 12.6 µM [inhibitor, single point]"
9,CCN(CC)C(=O)N1CCC2(CC1)CC(N1CCN(c3ccccn3)CC1)CCO2 (stereo unspecified),"inconclusive: 1.41 µM [inhibitor, full curve, poor fit]"
10,CC[C@H](CO)Nc1nc(Nc2cccc(-c3ccccn3)c2)c2ncn(C(C)C)c2n1,"inconclusive: 39.8 µM [inhibitor, single point]"
11,O=C(Nc1ccc2c(N3CCCCC3)ncnc2c1)c1ccsc1,"inconclusive: 3.98 µM [inhibitor, single point]"
12,CNC(=O)c1cccc(-c2ccccc2COc2ccc(CCOC)cc2)n1,"inconclusive: 17.8 µM [inhibitor, single point]"
13,c1ccc(CCN2CCNc3cc(NCc4cccnc4)ncc3C2)cc1,inactive
14,O=C1Nc2ccccc2CC12CCCN(Cc1ccccc1)C2 (stereo unspecified),inactive
15,COc1ccc(CNC(=O)CNC(=O)c2cccc(-c3ccc(SC)cc3)c2)cc1OC,inactive
16,CCC1(N2CCN(C(=O)Nc3cc(C)ccc3OC)CC2)CCN(C(=O)C(C)C)C1 (stereo unspecified),"inconclusive: 35.5 µM [inhibitor, single point]"
17,Cc1cccc(C(=O)NC2CCN(c3cc(-c4cccs4)[nH]n3)C2)c1 (stereo unspecified),"inconclusive: 14.1 µM [inhibitor, partial curve, poor fit]"
18,Cn1c2c(c3cc(F)ccc31)CN(C(=O)Nc1cccc(F)c1)CC2,inactive
19,COCCN1Cc2ccc(NCc3ccccc3)nc2C(C)(C(=O)NC2CCOCC2)C1 (stereo unspecified),"inconclusive: 5.01 µM [inhibitor, partial curve, poor fit]"
